Measurements: US20230039157A1 (HCW BIOLOGICS, published 2023)

Target: T1, IL-2Rβ and common γ chain on 32Dβ cells
T1 sequence (P16297 whole entry, species assumed, looked up): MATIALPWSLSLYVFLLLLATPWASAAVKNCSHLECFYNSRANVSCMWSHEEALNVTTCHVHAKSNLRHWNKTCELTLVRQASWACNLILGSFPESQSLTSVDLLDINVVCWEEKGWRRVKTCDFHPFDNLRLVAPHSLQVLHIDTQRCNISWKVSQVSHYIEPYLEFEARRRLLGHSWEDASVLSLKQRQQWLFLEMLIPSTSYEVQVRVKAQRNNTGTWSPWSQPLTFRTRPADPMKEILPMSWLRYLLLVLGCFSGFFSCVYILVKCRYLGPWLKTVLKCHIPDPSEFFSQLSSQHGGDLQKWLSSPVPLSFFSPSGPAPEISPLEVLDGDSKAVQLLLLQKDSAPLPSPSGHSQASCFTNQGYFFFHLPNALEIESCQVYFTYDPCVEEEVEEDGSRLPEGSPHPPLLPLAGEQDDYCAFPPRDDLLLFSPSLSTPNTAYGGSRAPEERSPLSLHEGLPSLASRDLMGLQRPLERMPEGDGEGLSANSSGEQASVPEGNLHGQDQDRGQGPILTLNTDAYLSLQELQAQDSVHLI
T1 sequence (P34902 whole entry, species assumed, looked up): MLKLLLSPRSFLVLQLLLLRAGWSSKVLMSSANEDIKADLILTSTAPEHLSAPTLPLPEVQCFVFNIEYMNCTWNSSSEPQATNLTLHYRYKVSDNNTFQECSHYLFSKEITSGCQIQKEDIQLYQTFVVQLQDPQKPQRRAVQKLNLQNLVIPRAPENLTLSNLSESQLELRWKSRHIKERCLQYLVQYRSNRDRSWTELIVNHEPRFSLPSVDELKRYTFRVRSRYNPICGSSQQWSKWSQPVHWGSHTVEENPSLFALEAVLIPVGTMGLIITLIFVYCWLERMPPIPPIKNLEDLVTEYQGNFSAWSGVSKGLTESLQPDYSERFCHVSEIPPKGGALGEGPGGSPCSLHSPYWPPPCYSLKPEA
Experiment: cell-based or functional assay

EC50 of 32Dβ cell proliferation (WST1, absorbance at 450 nM): 0.161 nM
B1: IL-15/TF/IL-15 single-chain chimeric polypeptide (other)
chain: [omitted - about 120 residues]SGTTNTVAAYNLTWKSTNFKTILEWEPKPVNQVYTVQISTKSGDWKSKCFYTTDTECDLTDEIVKDVKQTYLARVFSYPAGNVESTGSAGEPLYENSPEFTPYLETNLGQPTIQSFEQVGTKVNVTVEDERTLVRRNNTFLSLRDVFGKDLIYTLYYWKSSSSGKKTAKTNTNEFLIDVDKGENYCFSVQAVIPSRTVNRKSTDSPVECMGQEKGEFRE[omitted - about 120 residues]
